Results taken from the supplement of paper PMC3334620.
The full ranking holds about 33,000 sequences; the median of “E-score (-0.5 to 0.5)” is about -0.036, and the highest 2% start at about 0.37. This is one part of the list.

Molecular target: T1, Yer064c (UniProt P40041)
T1 sequence: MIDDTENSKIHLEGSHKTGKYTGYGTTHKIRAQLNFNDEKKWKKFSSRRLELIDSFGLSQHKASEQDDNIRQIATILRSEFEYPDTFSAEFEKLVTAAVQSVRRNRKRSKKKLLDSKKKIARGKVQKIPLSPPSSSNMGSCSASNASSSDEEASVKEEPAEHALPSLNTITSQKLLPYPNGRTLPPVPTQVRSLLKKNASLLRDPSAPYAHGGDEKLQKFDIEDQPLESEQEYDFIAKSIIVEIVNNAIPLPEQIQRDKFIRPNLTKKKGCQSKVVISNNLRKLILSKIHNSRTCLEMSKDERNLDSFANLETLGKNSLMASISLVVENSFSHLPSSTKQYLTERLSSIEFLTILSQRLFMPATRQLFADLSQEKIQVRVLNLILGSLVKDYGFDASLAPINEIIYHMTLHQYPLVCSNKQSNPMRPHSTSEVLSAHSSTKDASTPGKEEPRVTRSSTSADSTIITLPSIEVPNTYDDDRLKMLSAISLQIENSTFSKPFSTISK
Assay: PBM E-score (8-mer binding enrichment) (E-score (-0.5 to 0.5)); higher = stronger / more preferred TF binding; most listed sequences are background and not binding sites
Conditions: protein concentration: 200 nM; construct: GST-full length
Summary of the method: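 Universal all-10-mer Agilent arrays, double-stranded by primer extension on fresh or once-stripped slides, were probed with about 100-200 nM GST-tagged yeast transcription factors made by PURExpress. Fluorescent anti-GST detected bound protein, and masliner normalised the scans. E-scores from the Universal PBM Analysis Suite were given to each ungapped eight-base word pooled with its reverse complement.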

Row | Sequence | PBM E-score
1 | GCCACCGC | -0.3
2 | GAAGAAAA | -0.0492
3 | CTTTATTC | 0.00929
4 | CCCTGGCC | -0.277
5 | CATAGGAC | 0.172
6 | CAGAACGA | 0.12
7 | AGATCGCC | -0.0953
8 | ATCCTAGC | -0.00328
9 | AGAAACCA | 0.147
10 | GGGGAAAA | -0.331
11 | CGGCTGCA | -0.189
12 | GTTCTACA | -0.16
13 | ACCTAAAC | 0.103
14 | CCCATACA | -0.15
15 | ATGCCTGG | -0.145
16 | ACTTGCAT | 0.0403
17 | GCTACGTA | -0.104
18 | ACAGCGGG | -0.0979
19 | ATTGCAGC | -0.164
20 | CTTAACTA | 0.109
21 | ATCTTAAG | 0.0869
22 | CTAGTGAG | 0.0477

Row | Sequence | PBM E-score
23 | CGTCTGAC | 0.156
24 | CAGGTGGA | -0.2
25 | TGTAACAA | 0.0232
26 | ATTCTCAG | 0.1
27 | AACGCCCC | -0.226
28 | ATCAGAAA | -0.0472
29 | ACTTTCAT | 0.0766
30 | AATAGGGC | -0.167
31 | CTGCGATC | -0.106
32 | AGCTGAGC | -0.118
33 | AAAGGCAT | -0.14
34 | AATCCTTG | 0.102
35 | GGAGGCGA | -0.111
36 | CCTCATTA | 0.0877
37 | ATTTGCTG | 0.0322
38 | TCGCCAAA | 0.0491
39 | AGTTCTCG | 0.0443
40 | AATATCAC | -0.112
41 | CAGCGACC | -0.198
42 | AAGTCAAC | 0.367
43 | ATACTTCA | 0.0199
44 | ACGGCTCT | -0.0544

Row | Sequence | PBM E-score
45 | ATCCCCGA | -0.0358
46 | CAATAAGA | 0.213
47 | ATCTTAAA | 0.226
48 | CCTTGCTA | -0.0262
49 | GAGCCCCC | -0.305
50 | CAAGCGGA | -0.17
51 | ATACAATG | 0.113
52 | GGGGCACC | -0.429
53 | AACATGGC | -0.184
54 | AATGGGAA | -0.0485
55 | AAGAAGAT | 0.155
56 | CGGTGAAA | -0.127
57 | AAAGTAAA | 0.0649
58 | ATTGCATC | -0.0771
59 | AGAAAGTG | 0.0244
60 | ATGAGTAA | 0.386
61 | CTTTTCCC | -0.0425
62 | ATCACAAC | 0.13
63 | GTACATAC | -0.0201
64 | TCTGCAAA | 0.0112
65 | AGCGCCGA | -0.00218
66 | AGAGCCTA | -0.106

Row | Sequence | PBM E-score
67 | AACACGTT | -0.0811
68 | GCAATAGA | -0.186
69 | ATGCTATA | -0.188
70 | AAGAAATA | 0.0217
71 | CTCCTTTA | -0.155
72 | GCTCCACA | -0.195
73 | GAAAAAGC | -0.1
74 | CAACTGAC | 0.0907
75 | ACGAAAAG | 0.0452
76 | ATACTAAT | 0.174
77 | GAAGGGTA | -0.148
78 | GCCATGCC | -0.125
79 | GCATTGGA | -0.0532
80 | CATAATAC | -0.0404
81 | TCAAAGAA | 0.0747
82 | CAGATATG | -0.0349
83 | ATTCTAGC | 0.0282
84 | GTGGGTTA | 0.103
85 | AGGCTCAC | -0.00343
86 | CACTTAAA | 0.104
